# This is one part of the list.
# B1: PX14367B-bvu-516-23-516 (Bacteroides vulgatus) (protein)
# chain: LDTIPTTYVDAGSVFGKTGDAEKVLNGGWNYLMETFNSYANPGYGAMLRANDAMGSDVVLNSKYGFRTHNEFSAIYGKGGTNTLSWLLAYRVINDCNGVLDNIDAAEGTQADRNRIKGQALALRGFLYLHLASCYSFAIDKDPDAVCAPIYTQSTDETIAAEGKPASSVSEVYAQSINDLEEALELIPETYVRDAKHKIDNEVVLGILSRACLYARQWEKAKTYSDKLLAKDNYLMTESEYKAGFNSVDNKEWIWGHAQTNDQSNASYQFHYLDTTTKGSYYYSFNVDPYFRDLFEDGDYRKEMLFWATDPGADVESAAYVWMRNSKFRFRDIENQLGDIVLMRVAEIYLINAEAKAHLNDPDAINKLNDLKTARGAKTIHTNLSQQDLLETIWLERRKELWGEGFSLIDIIRNQQTVVRNAYPEGPIDYIYTDENGQTHTLKKKTQGHRFFNFPDKSAFCPNSKYYLYRITDSEELANKNLYKDHPKLSIYTK
# Assays:
# Experiment in all cases: glycan array binding signal (z-score within array); higher = stronger binding
# Conditions in all cases: glycan notation: IUPAC condensed, linker removed
# Gal6S(b1-4)Glc6S = target: Gal6S(b1-4)Glc6S
# Method in brief: (§1)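 Columns mapping to the same glycan were averaged after glycan names were converted to IUPAC-condensed notation. The data come from 3228 arrays in the Consortium for Functional Glycomics database, limited to those with an available protein sequence. Binding is reported as a within-array Z-score averaged across arrays of one protein sequence and across linkers.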
# Gal6S(b1-4)GlcNAc = target: Gal6S(b1-4)GlcNAc
# Method in brief: as §1
# Gal6S(b1-4)GlcNAc6S = target: Gal6S(b1-4)GlcNAc6S
# Method in brief: as §1
# GalNAc(a1-3)Gal = target: GalNAc(a1-3)Gal
# Method in brief: as §1
# GalNAc(a1-3)GalNAc = target: GalNAc(a1-3)GalNAc
# Method in brief: as §1
# [1] = target: GalNAc(a1-3)GalNAc(b1-3)Gal(a1-4)Gal(b1-4)Glc
# Method in brief: as §1
# [2] = target: GalNAc(a1-3)GalNAc(b1-3)Gal(a1-4)Gal(b1-4)GlcNAc
# Method in brief: as §1
# GalNAc(b1-3)Gal = target: GalNAc(b1-3)Gal
# Method in brief: as §1
# [3] = target: GalNAc(b1-3)Gal(a1-4)Gal(b1-4)GlcNAc
# Method in brief: as §1
# [4] = target: GalNAc(b1-3)Gal(a1-4)Gal(b1-4)GlcNAc(b1-3)Gal(b1-4)Glc
# Method in brief: as §1
# [5] = target: GalNAc(b1-3)Gal(a1-6)Gal(b1-4)Glc
# Method in brief: as §1
# GalNAc(b1-3)GalNAc = target: GalNAc(b1-3)GalNAc
# Method in brief: as §1
# GalNAc(b1-3)GlcNAc = target: GalNAc(b1-3)GlcNAc
# Method in brief: as §1
# GalNAc(b1-4)Gal(b1-4)Glc = target: GalNAc(b1-4)Gal(b1-4)Glc
# Method in brief: as §1
# GalNAc(b1-4)GlcNAc = target: GalNAc(b1-4)GlcNAc
# Method in brief: as §1
# [6] = target: GalNAc(b1-4)GlcNAc(b1-2)Man
# Method in brief: as §1
# [7] = target: GalNAc(b1-4)GlcNAc(b1-2)Man(a1-3)[GalNAc(b1-4)GlcNAc(b1-2)Man(a1-6)]Man(b1-4)GlcNAc(b1-4)GlcNAc
# Method in brief: as §1
# [8] = target: GalNAc(b1-4)GlcNAc(b1-3)GalNAc(b1-4)GlcNAc
# Method in brief: as §1
# GalNAc(b1-4)GlcNAc6S = target: GalNAc(b1-4)GlcNAc6S
# Method in brief: as §1
# GalNAc(b1-6)GalNAc = target: GalNAc(b1-6)GalNAc
# Method in brief: as §1
# GalNAc3S(b1-4)GlcNAc = target: GalNAc3S(b1-4)GlcNAc
# Method in brief: as §1
# GalNAc3S(b1-4)GlcNAc3S = target: GalNAc3S(b1-4)GlcNAc3S
# Method in brief: as §1
# [9] = target: GalNAc3S(b1-4)[Fuc(a1-3)]GlcNAc
# Method in brief: as §1
# GalNAc4S6S(b1-4)GlcNAc = target: GalNAc4S6S(b1-4)GlcNAc
# Method in brief: as §1
# GalNAc6S(b1-4)GlcNAc = target: GalNAc6S(b1-4)GlcNAc
# Method in brief: as §1
# Glc(a1-4)Glc = target: Glc(a1-4)Glc
# Method in brief: as §1
# [10] = target: Glc(a1-4)Glc(a1-4)Glc(a1-4)Glc
# Method in brief: as §1
# Glc(a1-6)Glc(a1-6)Glc = target: Glc(a1-6)Glc(a1-6)Glc
# Method in brief: as §1
# [11] = target: Glc(a1-6)Glc(a1-6)Glc(a1-6)Glc
# Method in brief: as §1
# Glc(b1-4)Glc = target: Glc(b1-4)Glc
# Method in brief: as §1
# Glc(b1-6)Glc = target: Glc(b1-6)Glc
# Method in brief: as §1
# GlcA(b1-3)Gal = target: GlcA(b1-3)Gal
# Method in brief: as §1
# GlcA(b1-3)GlcNAc = target: GlcA(b1-3)GlcNAc
# Method in brief: as §1
# GlcA(b1-6)Gal = target: GlcA(b1-6)Gal
# Method in brief: as §1
# [12] = target: GlcA3S(b1-3)Gal(b1-4)GlcNAc(b1-2)Man
# Method in brief: as §1
# [13] = target: GlcA3S(b1-3)Gal(b1-4)GlcNAc(b1-3)Gal(b1-4)Glc
# Method in brief: as §1
# [14] = target: GlcNAc(a1-3)Gal(b1-4)GlcNAc
# Method in brief: as §1
binder,measurement,setting,value
B1,glycan array binding signal (z-score),Gal6S(b1-4)Glc6S,-0.214
same,glycan array binding signal (z-score),Gal6S(b1-4)GlcNAc,-0.039
same,glycan array binding signal (z-score),Gal6S(b1-4)GlcNAc6S,6.08
same,glycan array binding signal (z-score),GalNAc(a1-3)Gal,-0.133
same,glycan array binding signal (z-score),GalNAc(a1-3)GalNAc,-0.365
same,glycan array binding signal (z-score),[1],-0.201
same,glycan array binding signal (z-score),[2],-0.266
same,glycan array binding signal (z-score),GalNAc(b1-3)Gal,-0.341
same,glycan array binding signal (z-score),[3],-0.26
same,glycan array binding signal (z-score),[4],-0.376
same,glycan array binding signal (z-score),[5],-0.249
same,glycan array binding signal (z-score),GalNAc(b1-3)GalNAc,-0.152
same,glycan array binding signal (z-score),GalNAc(b1-3)GlcNAc,-0.357
same,glycan array binding signal (z-score),GalNAc(b1-4)Gal(b1-4)Glc,-0.318
same,glycan array binding signal (z-score),GalNAc(b1-4)GlcNAc,-0.301
same,glycan array binding signal (z-score),[6],-0.113
same,glycan array binding signal (z-score),[7],-0.286
same,glycan array binding signal (z-score),[8],-0.331
same,glycan array binding signal (z-score),GalNAc(b1-4)GlcNAc6S,-0.288
same,glycan array binding signal (z-score),GalNAc(b1-6)GalNAc,-0.34
same,glycan array binding signal (z-score),GalNAc3S(b1-4)GlcNAc,-0.285
same,glycan array binding signal (z-score),GalNAc3S(b1-4)GlcNAc3S,-0.254
same,glycan array binding signal (z-score),[9],1.93
same,glycan array binding signal (z-score),GalNAc4S6S(b1-4)GlcNAc,-0.223
same,glycan array binding signal (z-score),GalNAc6S(b1-4)GlcNAc,-0.124
same,glycan array binding signal (z-score),Glc(a1-4)Glc,-0.287
same,glycan array binding signal (z-score),[10],-0.259
same,glycan array binding signal (z-score),Glc(a1-6)Glc(a1-6)Glc,-0.38
same,glycan array binding signal (z-score),[11],-0.251
same,glycan array binding signal (z-score),Glc(b1-4)Glc,-0.261
same,glycan array binding signal (z-score),Glc(b1-6)Glc,-0.165
same,glycan array binding signal (z-score),GlcA(b1-3)Gal,0.749
same,glycan array binding signal (z-score),GlcA(b1-3)GlcNAc,-0.314
same,glycan array binding signal (z-score),GlcA(b1-6)Gal,-0.262
same,glycan array binding signal (z-score),[12],-0.233
same,glycan array binding signal (z-score),[13],-0.35
same,glycan array binding signal (z-score),[14],-0.357

# — the supplement of paper PMC8728848
